# Measurements from the RNAGym collection of RNA variant scans (doi:10.1093/nar/gkz1192).
# The source gives no read counts; variants with many changes may rest on few reads.
# B1: CPEB3 Ribozyme (parent)
# chain: UAACAGGGGGCCACAGCAGAAGCGUUCACGUCGCAGCCCCUGUCAGAUUCUGGUGAAUCUGCGAAUUCUGCUGUAUAUCUC
# Variants of: B1
# Assay: self-cleavage, relative activity (ratio to wild type); higher = more cleavage; in vitro, sequencing
# How it was run: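 Relative activity was defined as the cleaved/total read fraction for a variant divided by the same fraction for the unmutated ribozyme. CPEB3 self-cleaving ribozyme libraries were made by rounds of error-prone PCR, barcoded, and transcribed in vitro with T7 RNA polymerase for 5 hours at 37°C, and cleavage ran through transcription plus a 15 min DNase I step before EDTA. Illumina sequencing of template-switched reverse transcripts gave the reads, and DNA sequencing mapped the barcodes. Averages come from three batches, using variants with at least 5 reads.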
row,Variant,self-cleavage
1,UAACUGGGGGCCGCAGCGGAAGCGUUCACGUCGCAGCCCCUGUCAGAUUCUGGUAAAUCUGCGAAUCCUGCUGUAUAUCCC [A5U A13G A18G G55A U67C U80C],0.08
2,UAACUGGGGGCCGCAGCAGGAGCGUUCACGUCGCGGCCCCUGUCAGAUUCUGGUGAAUCUGCGUAUUCUGCUGUAUAUCUC [A5U A13G A20G A35G A64U],0.15
3,UAACUGGGGGCCGCAGCAGAGGCGUUCACGUCGAAGCCCCUGUCAGGUUCUGGUGAACCUGCGAAUUCUGCCGUAUAUCUC [A5U A13G A21G C34A A47G U58C U72C],0.42
4,UAACUGGGGGCCGCAGAAGAAGCGUUCACGUCGCAGCCCCCGUCAGAUUCUGGUGAAUCUGCGAAUUCUGCUGUAUAUCUC [A5U A13G C17A U41C],0.1
5,UAACUGGGGGCCGCAGCAGAAGGGUCCACGUCGCAGCCCCUGUCAGAUCCUGGUGAAUCCGGGAAUUCUGCUGUAUAUCUC [A5U A13G C23G U26C U49C U60C C62G],0.04
6,UAACUGGGGGCCGCAGCAGAAGCGUUCAAGUCGCAGCCCCCGUCAGAUUCUGGUGAAUCUGCGAAUUCUGCUGUAUACCUC [A5U A13G C29A U41C U78C],0.18
7,UAACUGGGGGCCGCAGCAUAAGCGUUCACGUCGCAGCCCUUGUGAGAUUCUGGUGAAUCUGCGAUUUCUGCUGUAUAUCUC [A5U A13G G19U C40U C44G A65U],0.06
8,UAACUGGGGGCCGCAGCAGAAGCGUCCACGUCGCAGCCCUUGUCAGAUUCUGGUGAAUCUGCGAAUUCUGUUGUAUAUCUC [A5U A13G U26C C40U C71U],0.13
9,UAACUGGGGGCCGCAGCAGAAGCGUGCACGUCGCAGCCUCUGUCAGAUUCUGGUGGAUCAGCGAAUUCCGCUGUAUAUCUC [A5U A13G U26G C39U A56G U60A U69C],0.06
10,UAACUGGGGGCCGCAGCAGAAGCGUUCACGCCGCAGCCCCUGUCAGAUCUUGGUCAAUCUGCGGAUUCUGCUGUAUAUCUC [A5U A13G U31C U49C C50U G55C A64G],0.13
11,UAACUGGGGGCCGCAGCAGAAGCGUUCACGUCGCAGCCCCUGUCAGAUUCUGGCGAAUCUGCGAAUUCUGCCGUAUAUCUC [A5U A13G U54C U72C],0.72
12,UAACUGGGGGCCGCAGCAGAAGCGUUCACGUCGCAGCCCCUGUCAGAUUCUGGUGAAUCUGCGAAUUCCGCUGUAUAUCUC [A5U A13G U69C],0.39
13,UAACUGGGGGCCGCAGCAGAAGCGUUCACGUCGCAGCCCCUGUCAGAUUCUGGUGAAUCUGCGAAUUCUGCAGUAUACCUC [A5U A13G U72A U78C],0.98
14,UAACUGGGGGCCGCAGCAGAAGCGUUCACGUCGCAGCCCCUGUCAGAUUCUGGUGAAUCUGCGAAUUCUGCUGUAAACCUC [A5U A13G U76A U78C],1.19
15,UAACUGGGGGCCUCAGCUGAAGCGUUCACGACGCAGCCCCAGUCAGAUUCUGGUGAAUCUGCGAAUUCUGCUGUAUAUCUC [A5U A13U A18U U31A U41A],0.24
16,UAACUGGGGGCCUCAGCAGAGGCGUUCACGUCGCAGCCCCUGUCGGAUUCUGGAGAAUCUGCGAAUCCCGCUGUAUAUCUC [A5U A13U A21G A45G U54A U67C U69C],0.16
17,UAACUGGGGGCCUCAGCAGAAGCGUUCGCGUCGCUGCCCCUGUCGGAUUCUGGUGAAUCUGCGAAUUCUGCUGUAUAUCUC [A5U A13U A28G A35U A45G],0.44

row,Variant,self-cleavage
1,UAACUGGGGGCCUCAGCAGAAGCGUUCACAUCGCAGCCCCAGUCAGAUUCUGGUGUAUCUGCGAAUUCUGCUGUAUAUCUC [A5U A13U G30A U41A A56U],0.08
2,UAACUGGGGGCCUCAGCAGAAGCGAUCAUGUCGCAGCCCCUGUCAGAUUCUGGUGAAUCUGCGAAUUCUGCUGUAUAUCCC [A5U A13U U25A C29U U80C],0.21
3,UAACUGGGGGCCUCAGCAGAAGCGUCCACGUCGCAGCCCCUGUCAGAUUCUGGUGAAUCUGCGAAUUCUGCCGUAUAUCUC [A5U A13U U26C U72C],0.67
4,UAACUGGGGGCCUCAGCAGAAGCGUUCACGCCGCAGCCCCUGCCAGAUUCUGGUGGAUCUGCGUAUUCUGCUGUAUAUCUC [A5U A13U U31C U43C A56G A64U],0.09
5,UAACUGGGGGCCUCAGCAGAAGCGUUCACGUCGCAGCCCCCGUCAGAUUCUGGUGAAUCUGCGAAUUCUGCUGUAUAUCUC [A5U A13U U41C],1.12
6,UAACUGGGGGCCUCAGCAGAAGCGUUCACGUCGCAGCCCCUGUCAGACUCUGGUGAAUCUGCGAAUUCUGCUGUAUAUCUC [A5U A13U U48C],1.13
7,UAACUGGGGGCCACCGCAGAAGCGUUCACGUCGCAGCCCCUGUCCGAUCCUGGUGAAACUGCGAAUCCUGCUGUAUAUCUC [A5U A15C A45C U49C U58A U67C],0.12
8,UAACUGGGGGCCACCGCAGAAGCGUUCACGUCGCAGCCCCUGUCAGGUUCUGGUGAAUCAGCGAAUUCUGCUGUAUAUCUC [A5U A15C A47G U60A],0.47
9,UAACUGGGGGCCACGGCGGAAGCGUUCACGUCGCAGCCCCUGUCAGAUAUUGGGGAAUCUGCGAAUUCUGCUGUAUAUCUC [A5U A15G A18G U49A C50U U54G],0.09
10,UAACUGGGGGCCACGGCAGAGGCGUUCACGUCGCAGCCCCUGUCAGAUUCUGGUGAAUCUGCGAAUUCUGCUGUAUAUCUC [A5U A15G A21G],0.7
11,UAACUGGGGGCCACGGCAGAAGCGUUCACGUCGCAGCCCCUGUCAGAUUCUGGUGAAUCUGCGGAUUCUGCUGUAAAUCUC [A5U A15G A64G U76A],0.65
12,UAACUGGGGGCCACGGCAGAAGCGUUCACGUCGCAGCCCCUGUAAGAUUCUGGUGAAUCUGCGAAUCCUGCUGCAUAUCUC [A5U A15G C44A U67C U74C],0.11
13,UAACUGGGGGCCACGGCAGAAGCGCUCACGUCGCAGCCCCUGUCUGAUUCUGGUGAAUCUGCGAAUUCUGCUGAAUAUAUC [A5U A15G U25C A45U U74A C79A],0.11
14,UAACUGGGGGCCACGGCAGAAGCGUUCACGUCGCAGCCCCUGCCAGAUUCUGGUGAAUCUGCGAAUUCUGCUGUAUACCUC [A5U A15G U43C U78C],0.43
15,UAACUGGGGGCCACGGCAGAAGCGUUCACGUCGCAGCCCCUGUCAGACUCUGGUGAAUCUGCGAAUUCUGCUGUAUAUCUC [A5U A15G U48C],0.9
16,UAACUGGGGGCCACUGCAGAAGCGUACUCGUCGCAGCCCCUGUCGGAUUCUGGUGAACCUGCGGAUUCUGCUGUAUAUCUC [A5U A15U U26A A28U A45G U58C A64G],0.29
17,UAACUGGGGGCCACUGCAGAAGCGUUCACGUCGCAGCCCCUGUCAGAUUCUGGUGAAUCUGCGAAAUCUGCUGUAUAUCUC [A5U A15U U66A],0.28
